The source gives no read counts; variants with many changes may rest on few reads.
B1: LINE1-mini (parent)
chain: GGCAGAGCUCAACACAGCGUGGCAAAGUGGCUGUGGCUAGACUGCC

Variants of: B1
Assay: self-cleavage, relative activity (ratio to wild type); higher = more cleavage; in vitro, sequencing; the parent is a self-cleaving ribozyme

| Variant | self-cleavage |
| --- | --- |
| GGCCGAGCUAAACACAGCGUGGCAAAGUGGCUGUGUCUAGACUGCA [A4C C10A G36U C46A] | 0.07 |
| GGCCGAGCUCAAGACAGCGUGGCAAAGUGGGUGUGUCUAGACUUCC [A4C C13G C31G G36U G44U] | 0.02 |
| GGCCGAGCUCAACACAGCGUGGCAAUGUGGGUGUGGCUAGCCUGCC [A4C A26U C31G A41C] | 0.08 |
| GGCCGAGCUCAACACAGCGUGGCACAGUGGAUGUUGCCAGACUGCC [A4C A25C C31A G35U U38C] | 0.03 |
| GGCCGAGCUCAACACUGCGUGUCAAAGUAGCUGUGGCUAGACUGCC [A4C A16U G22U G29A] | 0.04 |
| GGCCGAGCUCAACACAGGGGGGCAAAGUGGCUGUGGCGAGACUGCC [A4C C18G U20G U38G] | 0.01 |
| GGCCGAGCUCAAUACAGCGUGGCAAAGUGGCUGUGGCUAGAGUGCC [A4C C13U C42G] | 0.08 |
| GGCCGAGCUCAACACAGCGUGGCAAAGUGGCUGUGGCUAGUCUGUC [A4C A41U C45U] | 0.08 |
| GGCCGAGCUCAACAAAGCGUGGCAAAGUGGGUGUGGCGAGACUGCC [A4C C15A C31G U38G] | 0.03 |
| GGCCGAGCUCAACACAGUGUGGCAUAGAGGCUGUGGUUAGACUGCC [A4C C18U A25U U28A C37U] | 0.04 |
| GGCCGAGCUCAACACAGAGUGGCAAUGUGGCUGUGGCUAGACUGCC [A4C C18A A26U] | 0.24 |
| GGCCGAGCUCAACACAGGGUGGCAAAUUGGCUGUGGCUAGACAGCC [A4C C18G G27U U43A] | 0.05 |
| GGCCGAGCUCAACACAGCGUGGCACAGUGGCUGUGGCUACACUGCC [A4C A25C G40C] | 0.05 |
| GGCCGAGCUUUACACAGCGUGGCAAGGUAGCUGUGGCUAGACUGCC [A4C C10U A11U A26G G29A] | 0.03 |
| GGCCGAGCUCAAUACAGCGUGGCUAAGUGGCUGUGGUUAGACUGCC [A4C C13U A24U C37U] | 0.09 |
| GGCCGAGGUCAAAACAUCGUGGUAAGGUGGCUGUGGCUAGACUGCC [A4C C8G C13A G17U C23U A26G] | 0.05 |
| GGCCGAGCUCAACAAAGCGUGGCAAAGAGGCUGUGGCUAGACUGCC [A4C C15A U28A] | 0.09 |
| GGCCGAGUUCAACACAGCGUGGCAAAGUGGCUGUGGCUACACCGCC [A4C C8U G40C U43C] | 0.08 |
| GGCCGAGUUCAACACAGCGUGGCAAAGUGUCUGUGGCUAGACUGCC [A4C C8U G30U] | 0.23 |

| Variant | self-cleavage |
| --- | --- |
| GGCCGAGCUCAACAGAGCGUGGCAAAGCGGGUGUGGCUGGACUGCC [A4C C15G U28C C31G A39G] | 0.13 |
| GGCCGAGCUCAACACUGCGUGGCAAAGUGGCUGUGGCUAGAUUGCC [A4C A16U C42U] | 0.02 |
| GGCCGAGCUCAACACAGGGUAGCAAAGGGGCGGUGGCUAGACAGCC [A4C C18G G21A U28G U32G U43A] | 0 |
| GGCCGAGCUCAACACAGCGUGGCAGAGUGGCUGUGCUUAGACUGCC [A4C A25G G36C C37U] | 0.03 |
| GGCCGAGCUCAAUACAGCGUGCCAAAGUCGCUGUGGCCAUACUGCC [A4C C13U G22C G29C U38C G40U] | 0.04 |
| GGCCGAGGUCAACACAGUGUGGCAUAGUGGCUGUGGCUAGACUGCC [A4C C8G C18U A25U] | 0.01 |
| GGCCGAGCUUAAGACAGCGUGGCAAAAUGGUUGUGGCUAGACAGCC [A4C C10U C13G G27A C31U U43A] | 0.01 |
| GGCCGAGAUCAAAACCGGGUGGCAAAGUGGCUGUGGCGAGACUGCC [A4C C8A C13A A16C C18G U38G] | 0.03 |
| GGCCGAGCUCAACAUAGCGUGGCAAAGUGGCUGUGGCCAGACUGCC [A4C C15U U38C] | 0.68 |
| GGCCGAGUUCAACAUAGCGUGGCAAAGUGGCUGUGGCUAGACUGCC [A4C C8U C15U] | 0.91 |
| GGCCGAGCUGAACACAGCGUGGCAAAGUGGCAGUGGCUAGACUGCC [A4C C10G U32A] | 0.02 |
| GGCCGAGGUCAACACAGCGUGGGAAAGUGGCUGUGGCUAGACUGCC [A4C C8G C23G] | 0.09 |
| GGCCGAGCUCAACACUGCGUGGCAAAGUGGCUGUGGCGAGACUGCC [A4C A16U U38G] | 0.01 |
| GGCCGAGCUAACCACAGCGUGGCAAAGUCGCUGUGGCUAGACUGCC [A4C C10A A12C G29C] | 0 |
| GGCCGAGCUCAAUGCAGCGUGGCAAAGUGGAUGUGGCUAGACUGCC [A4C C13U A14G C31A] | 0.01 |
| GGCCGAGAUGAACACAGCGUGGCAAAGUGGUUGUGGCUAGACUGCC [A4C C8A C10G C31U] | 0.03 |
| GGCCGAGCUCAACACAGCGUGGCAAUCUGGCUGUGGCUAGCCUGUC [A4C A26U G27C A41C C45U] | 0.02 |
| GGCCGAGCUCAAUACAGCGGGGCAAAGUGGCUGUGGCUAGACUGCC [A4C C13U U20G] | 0.02 |
| GGCCGAGGUCAACACAGCGUGGCAAAUUGGCUGUGGCUAGACUGCC [A4C C8G G27U] | 0.15 |

| Variant | self-cleavage |
| --- | --- |
| GGCCGAGCUCAACACAGGGUGGCAAAGUGGCUGUGGCUAAACUGAC [A4C C18G G40A C45A] | 0.04 |
| GGCCGAGCUCAACACAGUGUGGCAAAGUCGCUUUGGCUAGACUGCC [A4C C18U G29C G33U] | 0.09 |
| GGCCGAGGUCAACACAGCGUGUUAAAGUGGCUGCGGCUAGACUGCG [A4C C8G G22U C23U U34C C46G] | 0.04 |
| GGCCGAGCUAACCACAGCGUGGCAAACUGGCUGUGGCUAGACUACC [A4C C10A A12C G27C G44A] | 0.02 |
| GGCCGAGCUAAACACAGCGUGGCAAAGUGCCUGUGGCUAGACUGCC [A4C C10A G30C] | 0.03 |
| GGCCGAGCUAAACACAGCGUGGCAAAGUGGGUGUGGCUAGACUGCC [A4C C10A C31G] | 0.02 |
| GGCCGAGCUCAAUACAGCGUGGCAAAGUGCCUGUGGCUAGACUGCC [A4C C13U G30C] | 0.08 |
| GGCCGAGCUCAAACCAGCGAGGCAAAGUGCCUGUGGCUAGACUGCC [A4C C13A A14C U20A G30C] | 0.02 |
| GGCCGAGAUCAACACAUCGUGCCGAAGUGGCUGUGGUUAGACUGAC [A4C C8A G17U G22C A24G C37U C45A] | 0.1 |
| GGCCGAGCUCAACACAGCGUGGCAUAGUGGCUGUGGCUCCACUGCC [A4C A25U A39C G40C] | 0.06 |
| GGCCGAGCUAAACACAGCGUUGCAAAGUGGCUGUGGCUAGACUGCC [A4C C10A G21U] | 0.05 |
| GGCCGAGCUUCACACAGGGUGGCAUAGUGGCUGUGGCUAGACUGCC [A4C C10U A11C C18G A25U] | 0.02 |
| GGCCGAGCUCAACACAGCGUGGCAAAGUGGCUGUGGCUAGGCUUCC [A4C A41G G44U] | 0.09 |
| GGCCGAGCUAAACACAGCGUGGCAAAGUGGCUUUGGCUAGACUGCC [A4C C10A G33U] | 0.03 |
| GGCCGAGUACGCCACAGCGAGGCAAAGUGGCGGUGGCUAGACUGCC [A4C C8U U9A A11G A12C U20A U32G] | 0.01 |
| GGCCGAGAUCAGCACAGCGUGGCAAAGUGGCUGUGGCUAGACUUCC [A4C C8A A12G G44U] | 0.14 |
| GGCCGAGCUCAACAUAGCGUGGCAAAGUCGCUGUGGCUCGACUGUC [A4C C15U G29C A39C C45U] | 0.14 |
| GGCCGAGCUUAACACAGGGUGGCAAAGAGGCUGUGGCUAGCCUGCC [A4C C10U C18G U28A A41C] | 0.02 |
